# Laboratory results: the supplement of paper PMC8728848
# This is one part of the list.
# Columns and labels:
# Assay in all cases: glycan array binding signal (z-score within array); higher = stronger binding
# Conditions in all cases: glycan notation: IUPAC condensed, linker removed
# [1] = target: GlcNAc(b1-3)Gal(b1-4)GlcNAc(b1-3)Gal(b1-4)GlcNAc(b1-3)GalNAc
# Summary of the method: (§1)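 Glycan array binding is given as a within-array Z-score, which can be read as non-binding when negative. The arrays, 3228 of them, came from the Consortium for Functional Glycomics database and were retained only where the protein sequence was available. Z-scores were averaged across arrays of the same protein sequence at different concentrations or buffers and across linkers.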
# [2] = target: GlcNAc(b1-3)Gal(b1-4)GlcNAc(b1-3)GalNAc
# Summary of the method: as §1
# [3] = target: GlcNAc(b1-3)Gal(b1-4)GlcNAc(b1-3)[GlcNAc(b1-3)Gal(b1-4)GlcNAc(b1-3)]GalNAc
# Summary of the method: as §1
# [4] = target: GlcNAc(b1-3)Gal(b1-4)GlcNAc(b1-6)[Gal(b1-3)]GalNAc
# Summary of the method: as §1
# [5] = target: GlcNAc(b1-3)Gal(b1-4)GlcNAc(b1-6)[GlcNAc(b1-3)Gal(b1-3)]GalNAc
# Summary of the method: as §1
# [6] = target: GlcNAc(b1-3)Gal(b1-4)GlcNAc(b1-6)[GlcNAc(b1-3)]Gal(b1-4)GlcNAc
# Summary of the method: as §1
# [7] = target: GlcNAc(b1-3)GalNAc
# Summary of the method: as §1
# [8] = target: GlcNAc(b1-3)Man
# Summary of the method: as §1
# [9] = target: GlcNAc(b1-3)[GlcNAc(b1-4)][GlcNAc(b1-6)]GlcNAc
# Summary of the method: as §1
# [10] = target: GlcNAc(b1-3)[GlcNAc(b1-6)]Gal(b1-4)GlcNAc
# Summary of the method: as §1
# [11] = target: GlcNAc(b1-3)[GlcNAc(b1-6)]GalNAc
# Summary of the method: as §1
# [12] = target: GlcNAc(b1-4)Gal(b1-4)GlcNAc
# Summary of the method: as §1
# [13] = target: GlcNAc(b1-4)GlcNAc
# Summary of the method: as §1
# [14] = target: GlcNAc(b1-4)GlcNAc(b1-4)GlcNAc
# Summary of the method: as §1
# [15] = target: GlcNAc(b1-4)GlcNAc(b1-4)GlcNAc(b1-4)GlcNAc(b1-4)GlcNAc
# Summary of the method: as §1
# [16] = target: GlcNAc(b1-4)GlcNAc(b1-4)GlcNAc(b1-4)GlcNAc(b1-4)GlcNAc(b1-4)GlcNAc
# Summary of the method: as §1
# [17] = target: GlcNAc(b1-4)[GlcNAc(b1-6)]GalNAc
# Summary of the method: as §1
# [18] = target: GlcNAc(b1-6)Gal(b1-4)GlcNAc
# Summary of the method: as §1
# [19] = target: GlcNAc(b1-6)GalNAc
# Summary of the method: as §1
# [20] = target: GlcNAc6S(b1-3)Gal(b1-4)GlcNAc
# Summary of the method: as §1
# [21] = target: Kdn(a2-3)Gal(b1-3)GalNAc
# Summary of the method: as §1
# [22] = target: Kdn(a2-3)Gal(b1-3)GlcNAc
# Summary of the method: as §1
# [23] = target: Kdn(a2-3)Gal(b1-4)Glc
# Summary of the method: as §1
# [24] = target: Kdn(a2-3)Gal(b1-4)GlcNAc
# Summary of the method: as §1
# [25] = target: Kdn(a2-3)Gal(b1-4)[Fuc(a1-3)]GlcNAc
# Summary of the method: as §1
# [26] = target: Kdn(a2-6)Gal(b1-4)GlcNAc
# Summary of the method: as §1
# [27] = target: Man(a1-2)Man(a1-2)Man(a1-3)Man
# Summary of the method: as §1
# [28] = target: Man(a1-2)Man(a1-2)Man(a1-6)[Man(a1-3)]Man
# Summary of the method: as §1
# [29] = target: Man(a1-2)Man(a1-3)Man
# Summary of the method: as §1
# [30] = target: Man(a1-2)Man(a1-3)[Man(a1-2)Man(a1-6)]Man
# Summary of the method: as §1
# [31] = target: Man(a1-2)Man(a1-3)[Man(a1-2)Man(a1-6)]Man(a1-6)[Man(a1-2)Man(a1-2)Man(a1-3)]Man
# Summary of the method: as §1
# [32] = target: Man(a1-2)Man(a1-3)[Man(a1-2)Man(a1-6)]Man(a1-6)[Man(a1-2)Man(a1-2)Man(a1-3)]Man(b1-4)GlcNAc(b1-4)GlcNAc
# Summary of the method: as §1
# [33] = target: Man(a1-2)Man(a1-3)[Man(a1-6)]Man(a1-6)[Man(a1-2)Man(a1-3)]Man(b1-4)GlcNAc(b1-4)GlcNAc
# Summary of the method: as §1
# [34] = target: Man(a1-2)Man(a1-6)[Man(a1-3)]Man(a1-6)[Man(a1-2)Man(a1-2)Man(a1-3)]Man
# Summary of the method: as §1
# [35] = target: Man(a1-2)Man(a1-6)[Man(a1-3)]Man(a1-6)[Man(a1-2)Man(a1-2)Man(a1-3)]Man(b1-4)GlcNAc(b1-4)GlcNAc
# Summary of the method: as §1
# [36] = target: Man(a1-3)[Man(a1-6)]Man
# Summary of the method: as §1
# [37] = target: Man(a1-3)[Man(a1-6)]Man(a1-6)[Man(a1-2)Man(a1-3)]Man(b1-4)GlcNAc(b1-4)GlcNAc
# Summary of the method: as §1
# [38] = target: Man(a1-3)[Man(a1-6)]Man(a1-6)[Man(a1-3)]Man
# Summary of the method: as §1
# [39] = target: Man(a1-3)[Man(a1-6)]Man(a1-6)[Man(a1-3)]Man(b1-4)GlcNAc(b1-4)GlcNAc
# Summary of the method: as §1
# [40] = target: Man(a1-3)[Man(a1-6)]Man(b1-4)GlcNAc(b1-4)GlcNAc
# Summary of the method: as §1
# [41] = target: Man(a1-3)[Man(a1-6)]Man(b1-4)GlcNAc(b1-4)[Fuc(a1-6)]GlcNAc
# Summary of the method: as §1
# [42] = target: Man(a1-6)Man
# Summary of the method: as §1
# [43] = target: Man(b1-4)GlcNAc
# Summary of the method: as §1
# [44] = target: MurNAc(b1-4)GlcNAc
# Summary of the method: as §1
# [45] = target: Neu5Ac(a2-3)Gal
# Summary of the method: as §1
binder,measurement,setting,value
"MPA (Maclura pomifera), P18674 (protein) GVTFDDGAYTGIREINFEYNSETAIGGLRVTYDLNGMPFVAEDHKSFITGFKPVKISLEFPSEYIVEVSGYVGKVEGYTVIRSLTFKTNKQTYGPYGVTNGTPFSLPIENGLIVGFKGSIGYWLDYFSIYLSL",glycan array binding signal (z-score),[1],-0.343
same,glycan array binding signal (z-score),[2],-0.266
same,glycan array binding signal (z-score),[3],0.326
same,glycan array binding signal (z-score),[4],-0.223
same,glycan array binding signal (z-score),[5],-0.194
same,glycan array binding signal (z-score),[6],-0.119
same,glycan array binding signal (z-score),[7],-0.162
same,glycan array binding signal (z-score),[8],-0.191
same,glycan array binding signal (z-score),[9],-0.275
same,glycan array binding signal (z-score),[10],-0.217
same,glycan array binding signal (z-score),[11],-0.085
same,glycan array binding signal (z-score),[12],-0.239
same,glycan array binding signal (z-score),[13],-0.211
same,glycan array binding signal (z-score),[14],-0.086
same,glycan array binding signal (z-score),[15],-0.014
same,glycan array binding signal (z-score),[16],-0.082
same,glycan array binding signal (z-score),[17],-0.208
same,glycan array binding signal (z-score),[18],-0.1
same,glycan array binding signal (z-score),[19],-0.107
same,glycan array binding signal (z-score),[20],-0.128
same,glycan array binding signal (z-score),[21],-0.095
same,glycan array binding signal (z-score),[22],-0.278
same,glycan array binding signal (z-score),[23],-0.128
same,glycan array binding signal (z-score),[24],-0.14
same,glycan array binding signal (z-score),[25],-0.14
same,glycan array binding signal (z-score),[26],-0.069
same,glycan array binding signal (z-score),[27],-0.231
same,glycan array binding signal (z-score),[28],-0.161
same,glycan array binding signal (z-score),[29],-0.247
same,glycan array binding signal (z-score),[30],-0.239
same,glycan array binding signal (z-score),[31],-0.215
same,glycan array binding signal (z-score),[32],-0.039
same,glycan array binding signal (z-score),[33],-0.168
same,glycan array binding signal (z-score),[34],-0.221
same,glycan array binding signal (z-score),[35],-0.253
same,glycan array binding signal (z-score),[36],-0.198
same,glycan array binding signal (z-score),[37],0.811
same,glycan array binding signal (z-score),[38],-0.079
same,glycan array binding signal (z-score),[39],-0.159
same,glycan array binding signal (z-score),[40],-0.177
same,glycan array binding signal (z-score),[41],-0.407
same,glycan array binding signal (z-score),[42],-0.169
same,glycan array binding signal (z-score),[43],-0.175
same,glycan array binding signal (z-score),[44],-0.191
same,glycan array binding signal (z-score),[45],-0.241
